Test results reported in paper PMC13534789 (2026).

Experiments:
[1] = target: T1, 10xHis-CAPRIN1 (recombinant human CAPRIN1, full length) (human, UniProt Q14444 1-709); assay: SPR; sarkosyl-solubilized APP, with compound 0152 (0.1 uM)
T1 chain: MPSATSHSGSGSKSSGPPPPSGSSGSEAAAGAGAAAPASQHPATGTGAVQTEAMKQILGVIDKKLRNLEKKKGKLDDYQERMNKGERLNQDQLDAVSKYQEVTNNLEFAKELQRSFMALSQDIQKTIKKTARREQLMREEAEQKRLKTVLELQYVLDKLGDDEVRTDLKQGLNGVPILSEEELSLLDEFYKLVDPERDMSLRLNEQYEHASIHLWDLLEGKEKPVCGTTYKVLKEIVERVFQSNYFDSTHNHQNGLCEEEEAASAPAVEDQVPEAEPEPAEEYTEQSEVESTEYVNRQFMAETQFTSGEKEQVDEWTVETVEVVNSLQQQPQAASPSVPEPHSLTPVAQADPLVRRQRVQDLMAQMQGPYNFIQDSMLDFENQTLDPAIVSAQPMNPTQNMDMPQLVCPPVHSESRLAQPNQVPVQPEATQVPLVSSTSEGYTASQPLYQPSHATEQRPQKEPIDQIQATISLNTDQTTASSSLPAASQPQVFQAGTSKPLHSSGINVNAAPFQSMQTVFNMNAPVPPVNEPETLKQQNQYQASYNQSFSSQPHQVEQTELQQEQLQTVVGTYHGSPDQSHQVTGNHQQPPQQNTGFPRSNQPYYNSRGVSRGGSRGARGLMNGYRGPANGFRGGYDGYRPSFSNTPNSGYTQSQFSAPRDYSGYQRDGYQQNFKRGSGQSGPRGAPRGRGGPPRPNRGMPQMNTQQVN

[2] = target: T1, 10xHis-CAPRIN1 (recombinant human …); assay: SPR; sarkosyl-solubilized APP, without 0152
[3] = target: T1, 10xHis-CAPRIN1 (recombinant human …); assay: SPR; sarkosyl-solubilized APP, without 0152
[4] = target: T1, 10xHis-CAPRIN1 (recombinant human …); assay: SPR; sarkosyl-solubilized APP, with compound 0152 (0.1 uM)

B1: 10xHis-MBP-APP695 (full-length) (natural protein)
chain: LEVPTDGNAGLLAEPQIAMFCGRLNMHMNV[in this place about 40 residues]ANQPVTIQNWCKRGRKQCKTHPHFVIPYRCLVGEFVSDALLVPDKCKFLHQERMDVCETHLHWHTVAKETCSEKSTNLHDYGMLLPCGIDKFRGVEFVCCPLAEESDNVDSADAEEDDSDVWWGGADTDYADGSEDKVVEVAEEEEVAEVEEEEADDDEDDEDGDEVEEEAEEPYEEATERTTSIATTTTTTTESVEEVVRVPTTAASTPDAVDKYLETPGDENEHAHFQKAKERLEAKHRERMSQVMREWEEAERQAKNLPKADKKAVIQHFQEKVESLEQEAANERQQLVETHMARVEAMLNDRRRLALENYITALQAVPPRPRHVFNMLKKYVRAEQKDRQHTLKHFEHVRMVDPKKAAQIRSQVMTHLRVIYERMNQSLSLLYNVPAVAEEIQDEVDELLQKEQNYSDDVLANMISEPRISYGNDALMPSLTETKTTVELLPVNGEFSLDDLQPWHSFGADSVPANTENEVEPVDARPAADRGLTTRPGSGLTNIKTEEISEVKM[in this place about 100 residues]
koff [1]: 0.0103 s⁻¹ | Kd [2]: 18 µM | koff [3]: 0.109 s⁻¹ | Kd [4]: 0.49 µM
